# Measurements: article PMC4336329 (PLoS ONE, 2015)
# Screen size: about 310,000 compounds; about 2,200 (0.71%) showed an effect of 50% or more. Effects have a minus sign here. This is one part of the list.
# Molecular target: human ether-à-go-go-related gene (hERG) potassium channel (human, UniProt Q12809)
# Experiment: primary screen, population patch clamp on CHO cells stably expressing hERG
# Chain of human ether-à-go-go-related gene (hERG) potassium channel (Q12809 whole entry, looked up): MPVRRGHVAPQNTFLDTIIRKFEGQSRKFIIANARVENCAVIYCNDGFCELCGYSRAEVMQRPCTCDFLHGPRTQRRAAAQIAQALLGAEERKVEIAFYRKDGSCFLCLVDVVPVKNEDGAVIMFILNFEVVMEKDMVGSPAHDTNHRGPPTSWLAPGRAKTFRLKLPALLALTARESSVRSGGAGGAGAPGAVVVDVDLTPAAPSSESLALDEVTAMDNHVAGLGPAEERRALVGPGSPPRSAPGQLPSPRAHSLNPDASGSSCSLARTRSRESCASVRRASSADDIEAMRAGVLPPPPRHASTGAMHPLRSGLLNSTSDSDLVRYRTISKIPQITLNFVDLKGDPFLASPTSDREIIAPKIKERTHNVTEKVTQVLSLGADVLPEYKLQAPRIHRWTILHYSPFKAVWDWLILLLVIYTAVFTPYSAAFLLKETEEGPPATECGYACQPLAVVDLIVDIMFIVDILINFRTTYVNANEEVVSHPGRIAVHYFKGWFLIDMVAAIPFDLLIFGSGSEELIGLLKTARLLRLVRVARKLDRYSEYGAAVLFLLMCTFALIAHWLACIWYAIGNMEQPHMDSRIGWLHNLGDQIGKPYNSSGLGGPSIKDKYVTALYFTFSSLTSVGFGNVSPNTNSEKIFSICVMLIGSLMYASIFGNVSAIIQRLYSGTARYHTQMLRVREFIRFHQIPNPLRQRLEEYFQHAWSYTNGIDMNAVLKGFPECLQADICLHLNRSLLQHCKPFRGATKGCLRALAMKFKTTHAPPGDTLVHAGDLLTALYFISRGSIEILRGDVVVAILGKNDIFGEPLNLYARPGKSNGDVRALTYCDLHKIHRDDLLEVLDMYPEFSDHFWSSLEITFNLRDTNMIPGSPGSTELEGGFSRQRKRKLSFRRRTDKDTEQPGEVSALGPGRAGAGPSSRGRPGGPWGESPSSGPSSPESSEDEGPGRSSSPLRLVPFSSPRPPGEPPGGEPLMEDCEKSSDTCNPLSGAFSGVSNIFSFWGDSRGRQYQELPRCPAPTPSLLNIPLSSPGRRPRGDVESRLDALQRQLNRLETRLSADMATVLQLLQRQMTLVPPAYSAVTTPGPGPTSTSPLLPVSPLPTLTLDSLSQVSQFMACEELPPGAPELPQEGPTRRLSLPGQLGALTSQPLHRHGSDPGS
row,SMILES,"hERG current change (%, negative = inhibition) at 1uM"
1,O=C(NCc1ccccc1)C1=C[C@@H](c2ccccc2)C[C@@H](OCCCCO)O1,-3.48%
2,CCOC(=O)CNc1nc(C#N)nc(N2CCOCC2)n1,9.03%
3,CCn1c2ccccc2c2cc(NC(=O)c3ccco3)ccc21,2.16%
4,CC(=O)c1cc2c(cc1N/C(=N/S(=O)(=O)c1ccc(Br)cc1)c1ccccc1)OCO2,13.7%
5,CC1CCN(S(=O)(=O)c2cccc(C(=O)Nc3nccs3)c2)CC1,2.66%
6,CCOC(=O)Oc1c(OC)cc(C(=O)O[C@@H]2C[C@@H]3CN4CCc5c([nH]c6cc(OC)ccc56)[C@H]4C[C@@H]3[C@H](C(=O)OC)[C@H]2OC)cc1OC,10.8%
7,Cc1cccc(NC(=O)c2cc(NC(=O)C3CCCCC3C(=O)O)ccc2N2CCOCC2)c1 (stereo not shown),10.6%
8,COc1ccc(Cl)cc1NC(=O)CN(C)C(=O)c1n[nH]c2ccccc12,5.21%
9,C=C(C)c1sc(-c2ccccc2)nc1C,-7.65%
10,COc1ccc(C2Nc3cccc4cccc(c34)N2)cc1Br,8.67%
11,Cc1ccccc1N1C(=O)/C(=C/c2ccco2)C(=O)NC1=S,11.1%
12,COc1ccc(CCNc2nc3ccccc3n3nnnc23)cc1OC,5.27%
13,O=[N+]([O-])c1cccc(C(=NCc2ccccc2)NO)c1,15.5%
14,O=C(O)c1ccccc1C(=O)c1ccc(Br)s1,16%
15,COc1cc(/C=N/NC(=O)c2ccncc2)ccc1OC(C)=O,10.6%
16,COc1ccc(S(=O)(=O)n2ccc(-c3ccc4c(c3)CCC(C)(C)O4)n2)cc1,5.81%
17,CC(Oc1ccccc1)C(=O)NC1CC(C)(C)NC(C)(C)C1 (stereo not shown),9.76%
18,COc1cccc(CNC(=O)CCCC(=O)Nc2cccc([N+](=O)[O-])c2)c1,0.52%
19,O=C(NC(=S)NC1CCCCCCCCCCC1)c1cccnc1,5.03%
20,COCCn1c(SCC(=O)NCCc2ccccc2)nnc1-c1ccco1,-3.3%
21,COc1cc(C)c(CNc2cc(C)cc(C)c2)cc1C,9.11%
22,CC(C)(C)c1cccc(P(=O)(c2ccccc2)c2ccccc2)c1O,11.7%

row,SMILES,"hERG current change (%, negative = inhibition) at 1uM"
1,CC(C)c1ccccc1OCC(O)CN1CCN(S(=O)(=O)c2ccc([N+](=O)[O-])cc2)CC1.O=C(O)C(=O)O (stereo not shown),5.64%
2,COC(=O)c1sc(S(=O)(=O)N2CCCCC2)c(C(=O)OC)c1C,0.311%
3,COc1ccc(/C=C2/SC(=S)N(NS(=O)(=O)c3ccc(C)cc3)C2=O)cc1,22.1%
4,CC(C)CC(=O)Nc1cccc(-c2cn3ccsc3n2)c1,8.82%
5,CN(C)c1nc(N(C)C)nc(N(C#N)CCCl)n1,-0.143%
6,CCN(CC)CCn1c(SCC(=O)NCc2ccccc2)nc2c(sc3ccccc32)c1=O,0.187%
7,COc1cccc(C(=O)CC(C(=O)O)c2ccc(F)cc2)c1 (stereo not shown),2.31%
8,O=C1/C(=C/c2cccnc2)Oc2cc(OS(=O)(=O)c3ccccc3)ccc21,-0.883%
9,COc1ccc(-c2c(C)n([O-])c3c([n+]2=O)CCCC3)cc1OC,11.5%
10,CN(C)S(=O)(=O)c1ccc(-c2cn3ccccc3n2)cc1,8.62%
11,O=C(c1ccccc1F)n1c2c(c3ccccc31)CCCC2,20.6%
12,CCN(C(=O)CSc1nnc(-c2ccccc2)o1)c1c(N)n(Cc2ccccc2)c(=O)[nH]c1=O,7.93%
13,NC(=O)CC(NC(=O)c1ccccc1)c1ccc(NCCN2CCCCC2)c([N+](=O)[O-])c1 (stereo not shown),8.25%
14,CC1C2(C)OCC(C#N)(C(=N)O2)C1(C#N)C#N (stereo not shown),17.1%
15,Cn1c(SCC(=O)NC2CCCCC2)nnc1-c1cc2cc(Cl)ccc2o1,13.8%
16,CC(=O)OCC(=O)Nc1ccc(N=Nc2ccccc2)cc1,6.53%
17,COc1ccc(NC(=O)CSCCc2ccccn2)cc1OC,19.3%
18,Cc1n[nH]c(C)c1N=Nc1cc(Cl)ccc1Cl,12.8%
19,COc1ccccc1N1CCN(Cc2cc3c(cc2Br)OCCO3)CC1,10.3%
20,C=CCc1cccc(CNc2ccc(S(=O)(=O)Nc3nccnc3OC)cc2)c1O,14.4%
21,CN1CCN(S(=O)(=O)c2ccc3c(c2)NC(=O)CS3)CC1,10.6%
22,COc1ccc(C2CC(c3ccccc3)=NN2S(=O)(=O)c2ccc(C)cc2)c(OC)c1 (stereo not shown),0.771%

row,SMILES,"hERG current change (%, negative = inhibition) at 1uM"
1,COc1ccc(CNc2ccc(S(N)(=O)=O)cc2)cc1,-2.4%
2,Cc1ccc(S(=O)(=O)N2CCOCC2)cc1C(=O)N1CCOCC1,19%
3,COc1cc(/C=N/NC(=O)c2cccs2)ccc1O,7.68%
4,O=C(CSc1ncn[nH]1)Nc1c(F)cc(F)cc1Br,11.5%
5,CC(=O)c1cccc(NC(=O)CSc2nnc(-c3cccnc3)o2)c1,-16%
6,O=C(NCC1(N2CCOCC2)CCCCC1)c1cccc(S(=O)(=O)N2CCc3ccccc3C2)c1,9.1%
7,CCN(CC)CCN1C(=O)C2C3c4ccccc4C(c4ccccc43)C2C1=O (stereo not shown),8.61%
8,Cc1cc(CN2CCN(CCC#N)CC2)c(O)c(C2(C)CCCCC2)c1,10.7%
9,CCOc1ccccc1N1C(=O)CC(Nc2ccc(N3CCOCC3)cc2)C1=O (stereo not shown),3.85%
10,COc1ccccc1NC(=O)N(Cc1ccccc1)C1=NCC(C)S1 (stereo not shown),12.7%
11,Cn1cccc1C(C#N)c1ccccc1C#N (stereo not shown),7.1%
12,CC(C)(C)OC(=O)NCCCC1=CC2=CC(=O)C(C)(OC(=O)c3ccc(Cl)nc3)C(=O)C2=CO1 (stereo not shown),5.19%
13,CCC12CN3CC(CC)(CN(C1)C3c1ccc([N+](=O)[O-])o1)C2=O (stereo not shown),-5.81%
14,CC1=C(C(=O)OCc2ccc([N+](=O)[O-])cc2)N2C(=O)C(NC(=O)Cc3ccccc3)C2SC1 (stereo not shown),17.2%
15,CCOc1ccc2nc(SCC)[nH]c2c1.Cl,6.91%
16,CN1CCN(c2ccc(S(=O)(=O)N3CCCCC3)cc2NC(=O)c2ccc3ccccc3c2)CC1,2.46%
17,CCn1nnnc1NC(=O)c1cccc(OC)c1,4.7%
18,COc1ccc(Cn2c(SCC#N)nc3ccc(N4CCOCC4)cc3c2=O)cc1,19.3%
19,CCOC(=O)CN1C(=O)C(CC)Oc2ccccc21 (stereo not shown),-4.75%
20,COc1ccc(Cc2nnc(SCC(=O)Nc3ccc(C)cc3C)[nH]c2=O)cc1,-7.38%
21,Cc1oc2cc(O)ccc2c(=O)c1-c1ccccc1,6.99%
22,O=C(O)COc1ccc(Br)cc1/C=N\Nc1ccccn1,18.2%

row,SMILES,"hERG current change (%, negative = inhibition) at 1uM"
1,NC(=O)C(c1ccc(Cl)cc1)c1ccc(Sc2ccc(Cl)cc2)nn1 (stereo not shown),8.85%
2,O=C(c1ccco1)N1CCN(Cc2cc(=O)c(OCc3cccc(Cl)c3)co2)CC1,-22.1%
3,O=C(CSc1nnc(COc2ccccc2)o1)N1CCCCC1,8.16%
4,CC1CCN(C(=O)C2CCN(CCCc3ccccc3)CC2)CC1.O=C(O)C(=O)O,-23.5%
5,Cc1nnc(N/N=C/c2ccco2)n1N,6.72%
6,O=C(O)c1ccc(CSc2nc3ccccc3c(=O)n2-c2ccccc2)cc1,9.54%
7,CCOC(=O)c1nn(-c2ccc(F)cc2)c(=O)c2c(N)scc12,11.3%
8,O=C(CNCc1ccccc1)Nc1ccc(F)cc1,-3.84%
9,CC(NC(=O)c1ccc(F)cc1)C(=O)NC1=NCCS1 (stereo not shown),15.3%
10,COc1ccc(NC(=O)CSc2ccccn2)cc1OC,10.2%
11,O=C(Cn1ncc2c(=O)oc3ccccc3c21)N(Cc1ccco1)C1CCCCC1,6.15%
12,COc1ccc(CNc2nc3nc(C)c(Cl)c(=O)n3[nH]2)cc1,9.89%
13,COc1ccc([C@@H]2[C@@H]3C(=O)N(C(C)(C)C)C(=O)[C@@H]3[C@]3(Cc4ccccc4)C(=O)N(c4cccc(F)c4)C(=O)N23)cc1,6.77%
14,CCOc1ccccc1CN1CCN(Cc2cc(=O)c3ccccc3[nH]2)CC1CCO (stereo not shown),-29.6%
15,COc1cc(OC)c(C(=O)Nc2ccncc2)cc1OC,17.5%
16,O=c1c2ccccc2nc2n1CCCCN2,16.6%
17,COc1cccc(-n2nnc3c(=O)n(CC(=O)N4CCCc5ccccc54)cnc32)c1,-6.28%
18,Cn1ncc(Cl)c1C(=O)Nc1cccc(Cl)c1,-0.311%
19,Cc1n[nH]c(C)c1CCN(C)Cc1cn(C)nc1-c1ccc2c(c1)OCCO2,-0.959%
20,Cc1sc2nc(CN3CCOCC3)[nH]c(=S)c2c1C,-10.4%
21,CCC(=O)Nc1cc(C(=O)OCC(=O)c2ccc(Cl)cc2Cl)ccc1C,4.84%
22,CN(C)C=O.Cc1cc(C)nc(NC(=O)CSc2nc3cc(Cl)ccc3s2)n1,-2.11%
